# Measurements taken from the supplement of paper PMC12423691.
# The list shows a part of the results. Binding of human transcription factors and regulators to the viral nucleoprotein by AlphaScreen, crude cell-free proteins, amounts not normalised, one pass. Fold of the Venus control; higher = more signal. No active / inactive call. Single-pass screen; sequences are the whole Swiss-Prot entries looked up by name.
# B1: MYOCD, Q8IZQ8 (protein)
# chain: MTLLGSEHSLLIRSKFRSVLQLRLQQRRTQEQLANQGIIPPLKRPAEFHEQRKHLDSDKAKNSLKRKARNRCNSADLVNMHILQASTAERSIPTAQMKLKRARLADDLNEKIALRPGPLELVEKNILPVDSAVKEAIKGNQVSFSKSTDAFAFEEDSSSDGLSPDQTRSEDPQNSAGSPPDAKASDTPSTGSLGTNQDLASGSENDRNDSASQPSHQSDAGKQGLGPPSTPIAVHAAVKSKSLGDSKNRHKKPKDPKPKVKKLKYHQYIPPDQKAEKSPPPMDSAYARLLQQQQLFLQLQILSQQQQQQQHRFSYLGMHQAQLKEPNEQMVRNPNSSSTPLSNTPLSPVKNSFSGQTGVSSFKPGPLPPNLDDLKVSELRQQLRIRGLPVSGTKTALMDRLRPFQDCSGNPVPNFGDITTVTFPVTPNTLPNYQSSSSTSALSNGFYHFGSTSSSPPISPASSDLSVAGSLPDTFNDASPSFGLHPSPVHVCTEESLMSSLNGGSVPSELDGLDSEKDKMLVEKQKVINELTWKLQQEQRQVEELRMQLQKQKRNNCSEKKPLPFLAASIKQEEAVSSCPFASQVPVKRQSSSSECHPPACEAAQLQPLGNAHCVESSDQTNVLSSTFLSPQCSPQHSPLGAVKSPQHISLPPSPNNPHFLPSSSGAQGEGHRVSSPISSQVCTAQMAGLHSSDKVGPKFSIPSPTFSKSSSAISEVTQPPSYEDAVKQQMTRSQQMDELLDVLIESGEMPADAREDHSCLQKVPKIPRSSRSPTAVLTKPSASFEQASSGSQIPFDPYATDSDEHLEVLLNSQSPLGKMSDVTLLKIGSEEPHFDGIMDGFSGKAAEDLFNAHEILPGPLSPMQTQFSPSSVDSNGLQLSFTESPWETMEWLDLTPPNSTPGFSALTTSSPSIFNIDFLDVTDLNLNSSMDLHLQQW
# B2: E2F6, O75461 (protein)
# chain: MSQQRPARKLPSLLLDPTEETVRRRCRDPINVEGLLPSKIRINLEDNVQYVSMRKALKVKRPRFDVSLVYLTRKFMDLVRSAPGGILDLNKVATKLGVRKRRVYDITNVLDGIDLVEKKSKNHIRWIGSDLSNFGAVPQQKKLQEELSDLSAMEDALDELIKDCAQQLFELTDDKENERLAYVTYQDIHSIQAFHEQIVIAVKAPAETRLDVPAPREDSITVHIRSTNGPIDVYLCEVEQGQTSNKRSEGVGTSSSESTHPEGPEEEENPQQSEELLEVSN
# B3: CDX1, P47902 (protein)
# chain: MYVGYVLDKDSPVYPGPARPASLGLGPQAYGPPAPPPAPPQYPDFSSYSHVEPAPAPPTAWGAPFPAPKDDWAAAYGPGPAAPAASPASLAFGPPPDFSPVPAPPGPGPGLLAQPLGGPGTPSSPGAQRPTPYEWMRRSVAAGGGGGSGKTRTKDKYRVVYTDHQRLELEKEFHYSRYITIRRKSELAANLGLTERQVKIWFQNRRAKERKVNKKKQQQQQPPQPPMAHDITATPAGPSLGGLCPSNTSLLATSSPMPVKEEFLP
# B4: SIX1, Q15475 (protein)
# chain: MSMLPSFGFTQEQVACVCEVLQQGGNLERLGRFLWSLPACDHLHKNESVLKAKAVVAFHRGNFRELYKILESHQFSPHNHPKLQQLWLKAHYVEAEKLRGRPLGAVGKYRVRRKFPLPRTIWDGEETSYCFKEKSRGVLREWYAHNPYPSPREKRELAEATGLTTTQVSNWFKNRRQRDRAAEAKERENTENNNSSSNKQNQLSPLEGGKPLMSSSEEEFSPPQSPDQNSVLLLQGNMGHARSSNYSLPGLTASQPSHGLQTHQHQLQDSLLGPLTSSLVDLGS
# B5: RBPJL, Q9UBG7 (protein)
# chain: MDPAGAADPSVPPNPLTHLSLQDRSEMQLQSEADRRSLPGTWTRSSPEHTTILRGGVRRCLQQQCEQTVRILHAKVAQKSYGNEKRFFCPPPCVYLSGPGWRVKPGQDQAHQAGETGPTVCGYMGLDSASGSATETQKLNFEQQPDSREFGCAKTLYISDADKRKHFRLVLRLVLRGGRELGTFHSRLIKVISKPSQKKQSLKNTDLCISSGSKVSLFNRLRSQTVSTRYLSVEDGAFVASARQWAAFTLHLADGHSAQGDFPPREGYVRYGSLVQLVCTVTGITLPPMIIRKVAKQCALLDVDEPISQLHKCAFQFPGSPPGGGGTYLCLATEKVVQFQASPCPKEANRALLNDSSCWTIIGTESVEFSFSTSLACTLEPVTPVPLISTLELSGGGDVATLELHGENFHAGLKVWFGDVEAETMYRSPRSLVCVVPDVAAFCSDWRWLRAPITIPMSLVRADGLFYPSAFSFTYTPEYSVRPGHPGVPEPATDADALLESIHQEFTRTNFHLFIQT
# B6: FOXO3, O43524 (protein)
# chain: MAEAPASPAPLSPLEVELDPEFEPQSRPRSCTWPLQRPELQASPAKPSGETAADSMIPEEEDDEDDEDGGGRAGSAMAIGGGGGSGTLGSGLLLEDSARVLAPGGQDPGSGPATAAGGLSGGTQALLQPQQPLPPPQPGAAGGSGQPRKCSSRRNAWGNLSYADLITRAIESSPDKRLTLSQIYEWMVRCVPYFKDKGDSNSSAGWKNSIRHNLSLHSRFMRVQNEGTGKSSWWIINPDGGKSGKAPRRRAVSMDNSNKYTKSRGRAAKKKAALQTAPESADDSPSQLSKWPGSPTSRSSDELDAWTDFRSRTNSNASTVSGRLSPIMASTELDEVQDDDAPLSPMLYSSSASLSPSVSKPCTVELPRLTDMAGTMNLNDGLTENLMDDLLDNITLPPSQPSPTGGLMQRSSSFPYTTKGSGLGSPTSSFNSTVFGPSSLNSLRQSPMQTIQENKPATFSSMSHYGNQTLQDLLTSDSLSHSDVMMTQSDPLMSQASTAVSAQNSRRNVMLRNDPMMSFAAQPNQGSLVNQNLLHHQHQTQGALGGSRALSNSVSNMGLSESSSLGSAKHQQQSPVSQSMQTLSDSLSGSSLYSTSANLPVMGHEKFPSDLDLDMFNGSLECDMESIIRSELMDADGLDFNFDSLISTQNVVGLNVGNFTGAKQASSQSWVPG
# B7: LRP6, O75581 (protein)
# chain: MGAVLRSLLACSFCVLLRAAPLLLYANRRDLRLVDATNGKENATIVVGGLEDAAAVDFVFSHGLIYWSDVSEEAIKRTEFNKTESVQNVVVSGLLSPDGLACDWLGEKLYWTDSETNRIEVSNLDGSLRKVLFWQELDQPRAIALDPSSGFMYWTDWGEVPKIERAGMDGSSRFIIINSEIYWPNGLTLDYEEQKLYWADAKLNFIHKSNLDGTNRQAVVKGSLPHPFALTLFEDILYWTDWSTHSILACNKYTGEGLREIHSDIFSPMDIHAFSQQRQPNATNPCGIDNGGCSHLCLMSPVKPFYQCACPTGVKLLENGKTCKDGATELLLLARRTDLRRISLDTPDFTDIVLQLEDIRHAIAIDYDPVEGYIYWTDDEVRAIRRSFIDGSGSQFVVTAQIAHPDGIAVDWVARNLYWTDTGTDRIEVTRLNGTMRKILISEDLEEPRAIVLDPMVGYMYWTDWGEIPKIERAALDGSDRVVLVNTSLGWPNGLALDYDEGKIYWGDAKTDKIEVMNTDGTGRRVLVEDKIPHIFGFTLLGDYVYWTDWQRRSIERVHKRSAEREVIIDQLPDLMGLKATNVHRVIGSNPCAEENGGCSHLCLYRPQGLRCACPIGFELISDMKTCIVPEAFLLFSRRADIRRISLETNNNNVAIPLTGVKEASALDFDVTDNRIYWTDISLKTISRAFMNGSALEHVVEFGLDYPEGMAVDWLGKNLYWADTGTNRIEVSKLDGQHRQVLVWKDLDSPRALALDPAEGFMYWTEWGGKPKIDRAAMDGSERTTLVPNVGRANGLTIDYAKRRLYWTDLDTNLIESSNMLGLNREVIADDLPHPFGLTQYQDYIYWTDWSRRSIERANKTSGQNRTIIQGHLDYVMDILVFHSSRQSGWNECASSNGHCSHLCLAVPVGGFVCGCPAHYSLNADNRTCSAPTTFLLFSQKSAINRMVIDEQQSPDIILPIHSLRNVRAIDYDPLDKQLYWIDSRQNMIRKAQEDGSQGFTVVVSSVPSQNLEIQPYDLSIDIYSRYIYWTCEATNVINVTRLDGRSVGVVLKGEQDRPRAVVVNPEKGYMYFTNLQERSPKIERAALDGTEREVLFFSGLSKPIALALDSRLGKLFWADSDLRRIESSDLSGANRIVLEDSNILQPVGLTVFENWLYWIDKQQQMIEKIDMTGREGRTKVQARIAQLSDIHAVKELNLQEYRQHPCAQDNGGCSHICLVKGDGTTRCSCPMHLVLLQDELSCGEPPTCSPQQFTCFTGEIDCIPVAWRCDGFTECEDHSDELNCPVCSESQFQCASGQCIDGALRCNGDANCQDKSDEKNCEVLCLIDQFRCANGQCIGKHKKCDHNVDCSDKSDELDCYPTEEPAPQATNTVGSVIGVIVTIFVSGTVYFICQRMLCPRMKGDGETMTNDYVVHGPASVPLGYVPHPSSLSGSLPGMSRGKSMISSLSIMGGSSGPPYDRAHVTGASSSSSSSTKGTYFPAILNPPPSPATERSHYTMEFGYSSNSPSTHRSYSYRPYSYRHFAPPTTPCSTDVCDSDYAPSRRMTSVATAKGYTSDLNYDSEPVPPPPTPRSQYLSAEENYESCPPSPYTERSYSHHLYPPPPSPCTDSS
# B8: SCML1, Q9UN30 (protein)
# chain: MMSNSSSEIDVIKTRIPTYDEDDNTILYAYETKPEFVNKEPNIVSDASCNTEEQLKTVDDVLIHCQVIYDALQNLDKKIDVIRRKVSKIQRFHARSLWTNHKRYGYKKHSYRLVKKLKLQKMKKNEVYETFSYPESYSPTLPVSRRENNSPSNLPRPSFCMEEYQRAELEEDPILSRTPSPVHPSDFSEHNCQPYYASDGATYGSSSGLCLGNPRADSIHNTYSTDHASAAPPSVTRSPVENDGYIEEGSITKHPSTWSVEAVVLFLKQTDPLALCPLVDLFRSHEIDGKALLLLTSDVLLKHLGVKLGTAVKLCYYIDRLKQGKCFEN
# Target: nucleoprotein N of Crimean-Congo hemorrhagic fever virus
# Experiment: AlphaScreen luminescence signal relative to Venus negative control (fold); higher = stronger binding to CCHFV N
# Protocol: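 AlphaScreen binding of cell-free made, FLAG-GST-tagged human transcription factors and regulators (crude translation products) to biotinylated N protein; signal as fold of the FLAG-GST-Venus control. One pass.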
row,Binder,AlphaScreen luminescence signal
1,B1,2.33
2,B2,1.81
3,B3,3.58
4,B4,3.53
5,B5,3.86
6,B6,5.07
7,B7,2.84
8,B8,1.26
